Data: the supplement of paper PMC10126150
Values marked as one replicate rest on one cluster of the flow cell; about a third of the high ones do not repeat.

Tested on: ATP
Experiment: switch fluorescence ratio, 500 uM ATP over buffer (Cy3 cluster intensity, sum of 5 cycles each) (fold (ratio)); higher = stronger signal-on switching upon ATP binding; sequences stand for … in TCGTCGGCAGCGTCAGATGTGTATAAGAGACAGTTTTTTTTTTTTTTTTTTTTTTTTT…TC
Details: aptamer strand: ATP DNA aptamer (quencher-CACCTGGGGGAGTATTGCGGAGGAAGG + anchor), 100 nM annealed; ATP concentration: 500 uM; one replicate
Method in brief: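 Between each of five buffer/ATP cycles, the flow-cell was stripped with NaOH and re-annealed. Each cycle imaged Cy3-labelled switching-strand clusters, annealed to 100 nM quencher-labelled ATP aptamer on a modified Illumina MiSeq flow-cell, first in selection buffer and then after 15 min with 500 uM ATP at 22 °C. The fluorescence ratio is summed target-cycle over summed buffer-cycle Cy3 intensity per cluster, averaged per switch-domain sequence, with clusters outside 100-1000 RFU excluded.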
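Further: ATP exposure 15 min at 22 °C before imaging.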

| Sequence | switch fluorescence ratio |
| --- | --- |
| CCTTGCGCTC | 5.07 |
| GCAGGGTTCG | 1.01 |
| TTAATATGTT | 1.02 |
| CACAATCCCG | 1.02 |
| TTCACGGGTA | 1.03 |
| TCTTGTATTT | 1.02 |
| TGGTCAAATG | 1.02 |
| ACATGGTGGA | 1.03 |
| AAGTTCGGTT | 0.985 |
| TACCGAATAG | 1.27 |
| TGTTTAGCG | 0.955 |
| GGACCACTTT | 1.01 |
| CGTTGCCGT | 0.942 |
| TTTGCGTTCC | 1.44 |
| GCTGAGTACG | 1.05 |
| CACACCACTT | 1.32 |
| CGGGCGACGG | 1 |
| TGATGGGCGA | 0.964 |
| TCGACCTTGG | 1.09 |
| ATCAAAGCGA | 1.03 |
| AAGGTCTTG | 1.06 |
| GATTCGTCGA | 0.957 |
| CGAAACCCAT | 1 |
| ACTGATGTTG | 1.01 |
| CGGAGTTCCG | 0.945 |
| GGCAATGTAT | 1.1 |

| Sequence | switch fluorescence ratio |
| --- | --- |
| TCCTGTAGAA | 1.17 |
| CGTTGCAGGC | 0.949 |
| GCCAACCCCA | 1.09 |
| GGACCAAGCA | 1.04 |
| CTATTTTCGT | 0.987 |
| TACAATGTG | 0.96 |
| GGCCGTTTTT | 0.966 |
| ATCTTACAAG | 1.29 |
| TCTAAACGTG | 0.92 |
| AATTCGTGGA | 1.01 |
| GGCGAAACAT | 1 |
| TGGTTCCCGG | 0.973 |
| TAGTTAGCTC | 1.04 |
| GCATCAATGA | 0.997 |
| GGGAACGTCT | 0.941 |
| GTCCGGCTAT | 1.07 |
| TTGCCCTTGC | 1.05 |
| TGGGATAACC | 1.01 |
| TGGTCGGACG | 1.06 |
| GGAAGATTGG | 1.01 |
| CCCACTAGCA | 1.19 |
| TGACCCTCTG | 0.918 |
| ATATTGGTCG | 1.04 |
| GTGTCCAGTC | 1.03 |
| GTAGTACGCT | 1.03 |
| ACCAGCGGGT | 1.04 |

| Sequence | switch fluorescence ratio |
| --- | --- |
| CCATATATGC | 1.08 |
| AATCAGATCC | 1.02 |
| CGATTCCCAG | 1.19 |
| ACAGTATTTT | 1.09 |
| GCAGATTGGG | 1 |
| CGAGACTAAC | 1.1 |
| GAATGAGTAT | 0.981 |
| AACGCGCTGT | 1.07 |
| CGGTAAAAGT | 0.966 |
| CGGTTAAAAG | 0.983 |
| CACAAAGATT | 1.03 |
| ATGCTTTAAC | 1.02 |
| CCCCGTAACT | 2.55 |
| ACAGTGGATG | 0.935 |
| TCGGATAAGG | 0.979 |
| CGGTGTTCGG | 0.996 |
| CCGAAGGCCT | 0.884 |
| CATATCGGGC | 1.04 |
| TCCCCTGTGG | 0.992 |
| AGCATATTTT | 1.04 |
| AGCATTGTGC | 0.983 |
| AAGGGAAAAC | 1.06 |
| CGTTCGTTGC | 1.17 |
| CACCGACGAA | 1.44 |
| AATCCAGTA | 0.949 |
| CAACCAAAG | 1.02 |

| Sequence | switch fluorescence ratio |
| --- | --- |
| GGGTTTCCAA | 0.983 |
| TTCTGCGGAG | 1.03 |
| GACTTCTACA | 1.13 |
| GTTCGCTTTA | 1.02 |
| CAGGGTCTTT | 0.906 |
| TTCACTCTGC | 1.45 |
| CGCGTGCTCA | 1.09 |
| CCGAGCGCTG | 4.52 |
| CAGGAGCCAG | 1.06 |
| GAGGTGGATG | 1.02 |
| GTTGACGTCC | 1.03 |
| GCAAGGGCAT | 1.01 |
| AGTTCGTATC | 1 |
| AGTTAATCCT | 1.07 |
| ACAGCTGTGA | 1.02 |
| TAGAATATCT | 0.937 |
| CAGGCGTCGC | 1.06 |
| ATGTCATGG | 1.03 |
| CACGAACGTG | 1.04 |
| CGTTCAGGG | 1.06 |
| GGTCGATCCG | 0.95 |
| TCTTTTAAC | 0.999 |
| GCATAGGGTA | 1.02 |
| TGCGGGCTCA | 1.01 |
| TATATAAAAC | 0.941 |
| CCCGAGTCTG | 1.09 |

| Sequence | switch fluorescence ratio |
| --- | --- |
| CTGTACCTCA | 1.03 |
| TAGGGACATG | 1.1 |
| CAAAGTCACG | 1.05 |
| GCTTCTGGCT | 0.957 |
| CCGAGTTAT | 1.31 |
| GTAGTTTGTT | 0.991 |
| TCCGTCGTGC | 1.3 |
| TAAGTATAAA | 1.03 |
| TCTCCACTGC | 2.39 |
| CTCGGGAAGA | 1.04 |
| TACGTCTTGC | 1 |
| GTATCGCTTA | 1.03 |
| TTGATTTCAC | 1.01 |
| GCCTTGGTTA | 1.01 |
| TACCATGTCA | 1.06 |
| TGCCAGGGTA | 1.08 |
| TAGTGTTGCG | 1.01 |
| TGAAAGCTCA | 0.995 |
| CTGAAATATC | 2.43 |
| CTTCGAGACT | 1.02 |
| CACCAAGTGC | 1.23 |
| GAACGCCTG | 0.998 |
| TATGAGATGA | 0.921 |
| ACGGCTTGGC | 1.04 |
| CCACGAGGTG | 2.85 |
| CGGACGGAGT | 0.993 |

| Sequence | switch fluorescence ratio |
| --- | --- |
| AGCAACTTGT | 0.992 |
| TTTTAGCAT | 0.991 |
| TTATGTAGTT | 0.992 |
| AATACCTATC | 1.07 |
| ACAGCGGGAT | 1.03 |
| CAAATCGGGT | 1 |
| ATGCCTTCTC | 1.09 |
| GTCGGGAAAC | 0.994 |
| GATGGCTGGG | 1.03 |
| GACGACCGAT | 1.81 |
| GTAGTCGTGT | 0.974 |
| ATTTGCGAAC | 1.06 |
| AGGAGTAGGC | 0.697 |
| TGATAGTGCG | 0.989 |
| TTACACATTA | 1.1 |
| GTTGCGGGCA | 1 |
| AGGTGTATGA | 0.975 |
| TCTACTTTGT | 0.977 |
| TATTTCCCG | 1.01 |
| TTGCATTTAG | 0.998 |
| GGGGATAGCA | 0.987 |
| TAAGACAATT | 1.06 |
| AAGTGTAA | 1.02 |
| CTTGTCTACT | 0.982 |
| TAATAAAGGC | 0.971 |
| ATGGCCAGC | 0.881 |

| Sequence | switch fluorescence ratio |
| --- | --- |
| CCCCGCTTTG | 3.2 |
| ACTCTGGTGG | 1.03 |
| CGGCCCAGTG | 2.7 |
| TGTCCGGATA | 1.01 |
| TCGTTAGTTG | 0.968 |
| GGGTACCAAC | 1.03 |
| GGTATTAAAA | 0.991 |
| GGTAACGTAC | 1.88 |
| GAAGGGCG | 0.996 |
| CAGCCTGGGA | 0.973 |
| GATCCAATTG | 1.02 |
| AGTCGTATGT | 1 |
| TCAAGTCGGC | 0.981 |
| ACTGGACCTG | 1.01 |
| GCAGCCCGG | 1 |
| TTTAAACGAT | 1.05 |
| TAGCTTATTT | 1.03 |
| GTTAATCAAG | 1.04 |
| CCACCAAATT | 1.09 |
| AAACAAGTCT | 1 |
| TGGGAGGCTC | 0.993 |
| GGTTCAGACT | 0.958 |
| CGGTAGCTA | 1.15 |
| TGTCCGAAGT | 1.1 |
| GCTTGCTGAG | 0.998 |
| CGGAGCAGCT | 1.91 |

| Sequence | switch fluorescence ratio |
| --- | --- |
| GGACTGTAAA | 1.07 |
| AATATCCATG | 0.954 |
| GTGTTGACGT | 0.972 |
| CGTTAGGTTC | 1.02 |
| CAGCACGTCG | 1.08 |
| TTGTGAGCAC | 1.05 |
| CTTCCGATCG | 1.07 |
| TTGAGAAGTA | 0.977 |
| TTTTGTCTTC | 1.02 |
| GACGCCGTAG | 1 |
| ACCGGTCTTA | 1.01 |
| CATTGCGTGT | 0.972 |
| TTGTCCGTGG | 1.01 |
| TCGTTGATCG | 1.02 |
| GCGTGCAAAG | 1 |
| GATGAAGTTC | 0.998 |
| TTTGCGCATA | 1.07 |
| CTACCGGT | 1.01 |
| GAGAGATAAC | 0.942 |
